Our source for the CC50 values is PubChem BioAssay AID1347044 (National Center for Advancing Translational Sciences (NCATS), 2019).

This is one part of the list. The main result of the screen is listed elsewhere. These columns were measured beside it and carry no call. Most of these compounds were active or inconclusive in the main read-out, so they are no random draw. Words in brackets tell the shape of the fitted curve; partial curves, single points and poor fits give uncertain potencies.
Tags give direction and shape of the fitted curve.

This test can be described thus: Natriuretic polypeptide receptor (hNpr1) antagonism - Confirmation. Note: nearly all actives have a fitted effect of over 70% in size. The note with it: HEK293 hNpr1 cGMP GloSensor luminescence, ANP-stimulated; measured here: HEK-hNpr1 cytotoxicity, CellTiter-Glo. The gist of the method: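 HEK293 cells co-expressing hNpr1 and GloSensor cGMP sensor preloaded 2 h with 2% GloSensor reagent, compounds added 30 min at room temperature, then 0.1 nM hNppA for 20 min; luminescence read before and after agonist. Cytotoxicity counter-screen run.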
For `O=C(c1cccc(Br)c1)N1CCN(c2cc(-c3ccc(Cl)cc3)[nH]n2)CC1`, the CC50 – broadly, the concentration giving 50% cytotoxicity – was 34.3 µM [falling, single point].
With `COc1cccc(CCC(=O)N2CCC(n3cc(-c4nc(-c5ccccc5)no4)nn3)C2)c1` (stereo unspecified) the figure was 21.7 µM [falling, partial curve]; with `O=C(c1ccc(F)cc1F)N1CCC2(CC1)N=C(c1ccc(Br)cc1)NO2`, 24.3 µM [falling, partial curve]; with `O=C(Nc1ccc(F)cc1)c1ccc2cc[nH]c2n1`, 39.6 µM [falling, partial curve].
With `COc1ccccc1-c1[nH]nc2ncc(C(=O)NCc3cccnc3)nc12` the figure was 39.6 µM [falling, single point]; with `CCN(Cc1cccc2cnccc12)CC1CCCN(CCc2cccc(F)c2)C1` (stereo unspecified), 38.5 µM [falling, single point]; with `Cc1nc(-c2ccc(OC3CCN(C(=O)c4cc(C)n(C)n4)C3)cc2)no1` (stereo unspecified), 21.7 µM [falling, partial curve].
With `CCC(O)c1cc2n(n1)CCN(C(=O)c1ccc(-c3ccccc3)n1C)C2` (stereo unspecified) the figure was 21.7 µM [falling, partial curve]; with `COc1ccc(C(=O)N2CCC3(CC2)N=C(c2ccc(Cl)cc2)NO3)cc1`, 21.7 µM [falling, partial curve].
For the molecule `O=C(CC1CCCCN(Cc2ccccc2)C1=O)N1CCN(c2ccc(F)cc2)CC1` (stereo unspecified), the CC50 was 17.2 µM [falling, partial curve].
For `O=[S+]([O-])(Nc1ccccc1)c1ccc2c(c1)OCCN(Cc1cccnc1)C2`, the CC50 was 44.4 µM [falling, single point].
Take `C[C@@H]1C(=O)O[C@H]2[C@H]1CC[C@@]1(C)Cc3sc(NC(=O)c4ccc(N(C)C)cc4)nc3[C@@H](C)[C@H]21`: the CC50 is 3.43 µM [falling, full curve].
As for `O=C(c1cc(F)ccc1F)N1CCC(Cc2nc(-c3ccc(F)cc3)no2)CC1`, the figure is 5.44 µM [falling, full curve].
As for `COc1ccc(CC(=O)NC2CCN(c3cc(-c4ccc(F)cc4)[nH]n3)CC2)cc1OC`, the figure is 21.7 µM [falling, partial curve].
With `Cc1ccc(Cl)cc1N1CCN(c2cc(C3CC(O)C3)ncn2)CC1` (stereo unspecified) the figure was 17.2 µM [falling, partial curve].
For `CCCn1cc(C(=O)NCC2COc3cc(OC)ccc3C2)c(C)n1` (stereo unspecified), the CC50 was 19.3 µM [falling, partial curve].
With `COc1ccc(C2Cn3nnc(C(=O)N4CCN(C(=O)c5cccc(F)c5)CC4)c3CO2)cc1` (stereo unspecified) the figure was 21.7 µM [falling, partial curve]; with `COc1ccc(CN2CCn3c(nn(-c4ccc([N+](=O)[O-])cc4)c3=O)C2)cc1`, 43.2 µM [falling, single point].
On to `CC1(COc2cccnc2)COc2ccc(C(=O)NCc3ccc4c(c3)OCO4)cc2N1` (stereo unspecified), for which the CC50 is 35.3 µM [falling, partial curve].
With `COc1ccc(C2Cn3nnc(C(=O)N4CCN(C(=O)c5cc(F)ccc5F)CC4)c3CO2)cc1` (stereo unspecified) the figure was 19.3 µM [falling, partial curve]; with `O=C(Nc1cc(F)cc(C(F)(F)F)c1)N1CCCOC(Cn2cccn2)C1` (stereo unspecified), 30.6 µM [falling, single point].
As for `CC1=NS(=O)(=O)N(C)C=C1C(=O)OCc1nc(-c2ccc(F)cc2)no1`, the figure is 24.3 µM [falling, partial curve].
As for `O=C(c1ccc(C(F)(F)F)cc1)N1CCn2c(nn(-c3ccncc3)c2=O)C1`, the figure is 21.7 µM [falling, partial curve]; as for `CC(C)c1ccc(CN2CC[C@@H]3OCC(=O)N(C(C)C)[C@H]3CC2)cc1`, 7.89 µM [falling, full curve].
Take `COc1cccc(CC(=O)N2CC(Oc3ccc(-c4noc(-c5ccncc5)n4)cc3)C2)c1`: the CC50 was 6.85 µM [falling, full curve].
With `O=C(c1ccc(OC(F)(F)F)cc1)N1CCN(c2cc(-c3ccc(Cl)cc3)[nH]n2)CC1` the figure was 21.7 µM [falling, partial curve]; with `COc1cccc(NC(=O)c2cnc3c(c2)N(C(=O)Cc2ccc(C(C)C)cc2)CCC3)c1`, 19.3 µM [falling, partial curve]; with `Cc1ncsc1CN1CCCCC1c1nc(CCOc2ccc(F)cc2)no1` (stereo unspecified), 19.3 µM [falling, partial curve].
In the case of `CC(C)S(=O)(=O)N1CC(Oc2ccc(-c3noc(-c4cccnc4)n3)cc2)C1`, the CC50 is 19.3 µM [falling, partial curve].
As for `COc1ccc(CNC(=O)c2cc3n(n2)CC(c2ccc(Cl)cc2)OC3)cc1` (stereo unspecified), the figure is 27.3 µM [falling, partial curve].
Turning to `COc1cccc(CNc2cc(Cl)nc3ccnn23)c1`, the CC50 is 35.3 µM [falling, partial curve].
As for `O=C(Cc1ccccc1Cl)NC1CCN(c2cc(C(F)(F)F)ncn2)CC1`, the figure is 21.7 µM [falling, partial curve].
With `O=C(Nc1ccc(Cl)cc1)c1cc2n(n1)CC(c1ccc3c(c1)OCO3)OC2` (stereo unspecified) the figure was 27.3 µM [falling, partial curve]; with `CC1=NS(=O)(=O)N(C)C=C1C(=O)OCc1nc(Cc2ccc(C)cc2)no1`, 24.3 µM [falling, single point]; with `O=C(CC1CCCC1)N1CCC(Cc2nc(-c3ccc(F)cc3)no2)CC1`, 5.44 µM [falling, full curve].
With `CC1CCCN(C(=O)c2cc3c(s2)CCN(C(=O)c2ccc(Cl)cc2)C3)C1` (stereo unspecified) the figure was 30.6 µM [falling, single point].
As for `COc1cc(F)cc(-c2cnc3[nH]cc(CC(=O)N4CCOCC4)c3c2)c1`, the CC50 is 9.94 µM [falling, full curve].
Take `COc1ccc(C2Cn3nnc(C(=O)N4CCN(C(=O)c5ccc(F)cc5)CC4)c3CO2)cc1` (stereo unspecified): the CC50 is 21.7 µM [falling, partial curve].
With `O=C(NCCc1ccccn1)c1cc2n(n1)CC(c1ccc(Br)cc1)OC2` (stereo unspecified) the figure was 24.3 µM [falling, partial curve]; with `COc1ccc(NC(=O)O[C@@H]2CO[C@H]3[C@@H]2OC[C@@H]3NC(=S)Nc2ccc(Cl)cc2)cc1`, 19.3 µM [falling, partial curve, poor fit]; with `COc1ccc(CC(=O)N2CCC(Cc3nc(-c4ccccc4)no3)CC2)cc1`, 17.2 µM [falling, partial curve].
On to `COc1ccc(C(=O)Nc2ccc(-c3noc([C@@H]4CCCN4Cc4ccc(OC(F)(F)F)cc4)n3)cn2)cc1`, for which the CC50 is 6.85 µM [falling, full curve].
As for `COc1ccc(CN2C(=O)CO[C@H]3CN(Cc4ccc5c(c4)OCO5)C[C@H]32)cc1`, the figure is 35.3 µM [falling, partial curve]; as for `O=[S+]1([O-])NC2(CCN(Cc3ccc(OC(F)(F)F)cc3)C2)CNc2ccccc21` (stereo unspecified), 12.2 µM [falling, partial curve]; as for `COc1ccc(CNC(=O)c2cc3c(s2)CCN(C(=O)c2ccccc2)C3)cc1OC`, 7.69 µM [falling, partial curve].
As for `Cn1cc(-c2ccc(O)c(F)c2)c2nc(COc3ccc(Cl)cc3)cn2c1=O`, the figure is 35.3 µM [falling, partial curve]; as for `CS(=O)(=O)N1CCc2ccc(C(=O)Nc3ccc(Oc4ccccc4)cc3)cc21`, 7.69 µM [falling, partial curve].
With `Fc1ccc2c(c1)nc1n2[C@@H](CNCc2cnc3ccccc3c2)COC1` the figure was 39.6 µM [falling, partial curve]; with `CCc1cc(N2CCOC(c3ccc4cc(OC)ccc4c3)C2)nc(C)n1` (stereo unspecified), 21.7 µM [falling, partial curve]; with `O=C(NCc1cccc(F)c1)c1csc(N2CCN(c3ccc(Cl)cc3)CC2)n1`, 21.7 µM [falling, partial curve].
In the case of `CC(C)c1ccc(CNC(=O)C2CCN(c3cc(C(F)(F)F)ncn3)CC2)cc1`, the CC50 was 24.3 µM [falling, partial curve].
`O=C(c1cc(Cl)ccc1F)N1CCC(Cc2nc(-c3ccc(F)cc3)no2)CC1`: the cytotoxic concentration (CC50) is 6.11 µM [falling, full curve].
`O=C(c1ccc2c(c1)OCO2)N1CCC2(CC1)N=C(c1ccc(Br)cc1)NO2`: the CC50 was 27.3 µM [falling, partial curve].
With `CCOc1ccc(C(O)Cn2ccn3nc(-c4ccccc4C)cc3c2=O)cc1` (stereo unspecified), the CC50 is 17.2 µM [falling, partial curve].
For `COc1ccc(-c2ccnc(N[C@H]3CO[C@H]4[C@@H]3OC[C@H]4OC(=O)Nc3ccc(C(C)=O)cc3)n2)cc1`, the CC50 is 19.3 µM [falling, partial curve].
As for `COc1ccc(CN2CCN3C(=O)N(Cc4ccc(OC)cc4)C[C@H]3C2)cc1`, the figure is 22.2 µM [falling, partial curve].
Regarding `O=C(OCc1ccccc1)N1CCCN(c2cc(C3CC(O)C3)ncn2)CC1` (stereo unspecified), the CC50 is 13.7 µM [falling, partial curve].
In the case of `Cc1noc(C)c1-c1cnc2[nH]cc(CC(=O)N3CCOCC3)c2c1`, the CC50 was 25 µM [falling, partial curve, poor fit].
As for `O=C(Nc1ccc(Cl)cc1)c1cc2n(n1)CC(c1ccc(Cl)cc1)OC2` (stereo unspecified), the figure is 30.6 µM [falling, single point]; as for `O=C(Nc1ccncc1)C1=NO[C@@H]2CN(CCc3ccccc3)C[C@H]12`, 31.4 µM [falling, partial curve].
`CCc1ccc(C(=O)N2CCC(Cc3nc(-c4ccc(OC)cc4)no3)CC2)cc1`: the CC50 is 8.62 µM [falling, full curve].
